Reference: the supplement of paper PMC3334620
Over roughly 33,000 sequences, “E-score (-0.5 to 0.5)” has its median near -0.016; the highest 2% begin near 0.31. The list shows a part of the results.

Molecular target: Cst6 (UniProt P40535)
Assay: PBM E-score (8-mer binding enrichment) (E-score (-0.5 to 0.5)); higher = stronger / more preferred TF binding; most listed sequences are background and not binding sites
Settings: protein concentration: 200 nM; construct: GST-DNA-binding domain
How it was run: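 Detection of bound protein used fluorescent anti-GST, with scans normalised by masliner. The proteins were GST-tagged yeast transcription factors applied at about 100-200 nM to universal all-10-mer Agilent arrays made double-stranded by primer extension. Each ungapped eight-base word, pooled with its reverse complement, was scored with an E-score from the Universal PBM Analysis Suite.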

Row | Sequence | PBM E-score
1 | CAAGCGCC | -0.0407
2 | CACAGGAC | -0.0491
3 | AGGGTTGC | -0.143
4 | ACTTTAGG | -0.151
5 | AAATCGAT | 0.0382
6 | GTCGGGCA | -0.176
7 | ACCTAGAG | -0.274
8 | CCAGCCAC | -0.133
9 | ATTATTGA | 0.167
10 | GAGCCTAC | -0.0177
11 | ATGAAACG | 0.0842
12 | CCCCGTAA | 0.0481
13 | GAAAAGTC | -0.00152
14 | AAGAGAGG | -0.0883
15 | AAATGTTG | 0.0786
16 | TACATGGA | -0.211
17 | AGAATGCT | 0.0256
18 | AGGTGTCG | -0.147
19 | CTGGCCCA | -0.26
20 | AGCCGCTA | -0.2
21 | CATCAGGA | 0.0688
22 | AGACACCC | -0.15
23 | AATCAAGC | 0.102
24 | CAACTTAC | -0.0734

Row | Sequence | PBM E-score
25 | AATTAATA | 0.39
26 | ATAATATA | 0.358
27 | ATCACGTG | 0.135
28 | CGCTCCAG | -0.138
29 | GAGTGCGC | -0.044
30 | ATATGATA | 0.296
31 | TCAGAGCA | -0.068
32 | AAATTCCA | 0.226
33 | GCACGGCA | 0.353
34 | GGGAGGTA | -0.217
35 | ACAACAAC | 0.181
36 | ACTCAAAT | 0.132
37 | GACTTAAC | -0.167
38 | ACGCTGTG | 0.188
39 | ACCCGGTC | -0.349
40 | ACTTATTC | 0.0144
41 | AAGCTTCG | -0.281
42 | CCGGCTTC | -0.144
43 | GAGGGTGC | -0.366
44 | AAGTTGAT | 0.0864
45 | CCTCTCTC | -0.36
46 | ACTGATGC | -0.0908
47 | AGTGTCTG | -0.128
48 | CATAATCA | 0.265

Row | Sequence | PBM E-score
49 | TCGTGCAA | 0.116
50 | CGCATGAC | 0.268
51 | CAACGTTA | 0.119
52 | GACGGGGC | -0.0314
53 | AATTCACA | 0.244
54 | CTACACAC | 0.0193
55 | AATAAGCG | -0.00311
56 | CCCGTAGC | -0.305
57 | GGGGGCCA | -0.348
58 | ATTACTAA | 0.26
59 | ACCCATTC | -0.104
60 | ATACTATG | 0.124
61 | ACATGCTG | -0.107
62 | ATAATGGA | 0.109
63 | GTCAGAAA | 0.201
64 | ACACAACC | 0.0407
65 | CATGATTC | 0.00239
66 | AATAAAAC | 0.206
67 | GGCAAGTA | -0.0549
68 | CGTGCAGC | -0.0203
69 | GTATTCCA | 0.026
70 | CGAAGTGC | 0.245
71 | CCTAGGCG | -0.0842
72 | TTACTAAA | 0.252

Row | Sequence | PBM E-score
73 | CACCGACC | 0.0233
74 | CAAGCAAG | -0.0686
75 | AATGTTAA | 0.0712
76 | ACTGCGAT | -0.0542
77 | AGACCGCA | -0.189
78 | GGAGATCC | -0.194
79 | AATGTCTA | 0.00848
80 | TTGCAAAA | 0.109
81 | AACATATA | 0.137
82 | AGGGCTGG | -0.236
83 | CTAAGTTC | -0.148
84 | GACCCGTC | -0.294
85 | CGGGGGGA | -0.487
86 | CATTTGGA | 0.0838
87 | AGAGTTCA | -0.304
88 | CAAAAAGA | 0.07
89 | CGTTAGGC | 0.0088
90 | ACCCAGAG | -0.0523
91 | CTACGACA | 0.0462
92 | CCCGCCAG | -0.205
93 | CTCGGAGC | -0.0422
94 | AACCTACT | -0.0169
